40 compounds from the supplement of paper PMC9135407 can be followed below.

Where “and” joins values, the source holds several entries; their conditions need not be identical. Equal entries are not always repeated. Structures can show the parent of a compound that is named as a salt. Hit rate of the full screen: of about 5,800 compounds, about 620 (11%) showed activity.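 The calls were made as follows: active = score above a cut-off or among the top three wells of a plate; in these data no inactive exceeds 0.85.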 The entries are a selection whose mix differs from that of the whole data set.

This experiment relates to primary human hepatic stellate cells (donor 1). Briefly: scaled lipid accumulation score (0 = DMSO-like, 1 = nortriptyline-like); higher = stronger HSC inactivation (lipid re-accumulation), active = hit call of the paper. The settings on record: 48 h.
The mark [1] stands for this setting: library stock concentration: 10 mM.
The mark [2] stands for this setting: library stock concentration: 3.33 mM.
Setting [3] is: library stock concentration: 1 mM.

Regarding `COc1ccc2cc(CCC(C)=O)ccc2c1`, under setting [1], the “scaled lipid accumulation score” value was inactive: 0.116.

Take `COc1ccc2cc(CCC(C)=O)ccc2c1` [Nabumetone]: the “scaled lipid accumulation score” value was inactive: 0.059. The “scaled lipid accumulation score” value under setting [2] was inactive: ≤ 0. Also, for the setting “library stock concentration: 8.8 mM”, the “scaled lipid accumulation score” value is inactive: 0.161 and inactive: ≤ 0. The “scaled lipid accumulation score” value under setting [1] was inactive: 0.05 and inactive: ≤ -0.027.

`Cc1cccc(/C=C/c2ccccc2)n1`: under setting [1], the “scaled lipid accumulation score” value was inactive: ≤ 0 and inactive: ≤ -0.006.

`O=C(O)CCC(=O)OC[C@@H](NC(=O)C(Cl)Cl)[C@H](O)c1ccc([N+](=O)[O-])cc1` [Chloramphenicol hemisuccinate]: the “scaled lipid accumulation score” value runs as follows: (library stock concentration: 4.7 mM) inactive: ≤ -0.001; under setting [1], inactive: ≤ 0.

Consider `CCCCCC(C)N` (stereo unspecified) [Tuaminoheptane sulfate], for which the “scaled lipid accumulation score” value runs as follows: (library stock concentration: 9.4 mM) inactive: 0.016; under setting [1], inactive: ≤ 0.

As to `C[C@H]1[C@@H](O)O[C@@H]2O[C@@]3(C)CC[C@H]4[C@H](C)CC[C@@H]1[C@@]24OO3` [Dihydroartemisinin (DHA)], the “scaled lipid accumulation score” value was inactive: ≤ 0 under setting [2] and inactive: 0.019 under setting [1].

With `C[C@H]1[C@@H](O)O[C@@H]2O[C@@]3(C)CC[C@H]4[C@H](C)CC[C@@H]1[C@@]24OO3`, the “scaled lipid accumulation score” value under setting [1] is inactive: ≤ 0.

In the case of `Cc1cc(C)cc(C(=O)N(C)[C@H](Cc2ccc(-c3ccccc3)cc2)C(=O)N[C@@H](Cc2c[nH]c3ccccc23)C(=O)O)c1`, the “scaled lipid accumulation score” value under setting [1] is inactive: 0.057.

Take `COc1ccc(-c2oc3c(CC=C(C)C)c(O[C@@H]4O[C@H](CO)[C@@H](O)[C@H](O)[C@H]4O)cc(O)c3c(=O)c2O[C@@H]2O[C@@H](C)[C@H](O)[C@@H](O)[C@H]2O)cc1`: the “scaled lipid accumulation score” value under setting [1] was inactive: ≤ 0.

With `COc1ccc(-c2oc3c(CC=C(C)C)c(O[C@@H]4O[C@H](CO)[C@@H](O)[C@H](O)[C@H]4O)cc(O)c3c(=O)c2O[C@@H]2O[C@@H](C)[C@H](O)[C@@H](O)[C@H]2O)cc1` [Icariin], the “scaled lipid accumulation score” value is inactive: 0.048 under setting [2] and inactive: ≤ 0 under setting [1].

`CCn1cc(C(=O)O)c(=O)c2ccc(C)nc21` [Nalidixic acid sodium]: under setting [1], the “scaled lipid accumulation score” value is inactive: ≤ -0.055.

In the case of `CCn1cc(C(=O)O)c(=O)c2ccc(C)nc21` [Nalidixic acid], the “scaled lipid accumulation score” value is, setting by setting: under setting [2], inactive: ≤ 0; (library stock concentration: 8.6 mM) inactive: ≤ 0; under setting [1], inactive: ≤ 0.

For `CCn1cc(C(=O)O)c(=O)c2ccc(C)nc21`, under setting [1], the “scaled lipid accumulation score” value was inactive: ≤ 0.

`CCO[C@@H]1OC(=O)C[C@@H]1NC(=O)[C@@H]1CCCN1C(=O)[C@@H](NC(=O)c1ccc(N)c(Cl)c1)C(C)(C)C`: the “scaled lipid accumulation score” value by setting is: under setting [2], inactive: ≤ 0; under setting [1], inactive: ≤ 0.

Take `CCCCCCCC/C=C\CCCCCCCC(=O)OC[C@@H](O)COP(=O)(O)O` [1-Oleoyl Lysophosphatidic Acid]: the “scaled lipid accumulation score” value under setting [3] is inactive: ≤ 0.

For `CCCCCCCC/C=C\CCCCCCCC(=O)OC[C@@H](O)COP(=O)(O)O` [1-Oleoyl Lysophosphatidic Acid (sodium salt)], the “scaled lipid accumulation score” value under setting [3] is inactive: ≤ 0.

In the case of `Oc1c(I)cc(I)c2cccnc12` [Iodoquinol], the “scaled lipid accumulation score” value by setting is: (library stock concentration: 5 mM) inactive: ≤ 0; under setting [1], inactive: ≤ 0.

Consider `CCCCCCCC/C=C\CCCCCCCC(=O)N[C@@H](CO)Cc1ccc(O)cc1`, for which the “scaled lipid accumulation score” value was inactive: ≤ 0 under setting [3] and inactive: 0.088 under setting [1].

With `NCCS(=O)(=O)O` [Taurine], the “scaled lipid accumulation score” value reads like this: under setting [1], inactive: ≤ 0; (library stock concentration: 16 mM) inactive: ≤ 0.

For `COc1cc2nc(N3CCN(C(=O)c4ccco4)CC3)nc(N)c2cc1OC` [Prazosin], the “scaled lipid accumulation score” value under setting [1] was active: 1.

For the compound `O=C(Nc1cc(C(F)(F)F)ccc1N1CCCCC1)c1ccncc1`, the “scaled lipid accumulation score” value is inactive: ≤ -0.009 under setting [2] and inactive: ≤ 0 under setting [1].

Take `CCn1cc(C(=O)O)c(=O)c2cnc(N3CCNCC3)nc21` [Pipemidic acid]: the “scaled lipid accumulation score” value is inactive: ≤ 0. Further, the “scaled lipid accumulation score” value under setting [1] is inactive: ≤ 0.

Turning to `N#CC(C#N)=C(N)/C(C#N)=C/c1ccc(O)cc1`, the “scaled lipid accumulation score” value under setting [2] is inactive: ≤ 0.

For the compound `N#CC(C#N)=C(N)/C(C#N)=C/c1ccc(O)cc1` [Tyrphostin AG 112], the “scaled lipid accumulation score” value under setting [1] was inactive: ≤ 0.

As to `CC(C)OC(=O)CCC/C=C\C[C@@H]1[C@@H](/C=C/C(F)(F)COc2ccccc2)[C@H](O)C[C@@H]1O` [Tafluprost], the “scaled lipid accumulation score” value under setting [3] is inactive: ≤ 0.

Consider `CN1CCN(c2nc3cc(C(F)(F)F)ccc3n3cccc23)CC1.O=C(O)/C=C\C(=O)O`, for which the “scaled lipid accumulation score” value under setting [1] is active: 1.15.

In the case of `COc1nc(C)nc(Cl)c1NC1=NCCN1`, under setting [1], the “scaled lipid accumulation score” value is inactive: ≤ 0.

For the compound `COc1nc(C)nc(Cl)c1NC1=NCCN1` [Moxonidine], the “scaled lipid accumulation score” value is inactive: ≤ 0. The “scaled lipid accumulation score” value under setting [2] is inactive: ≤ 0. Also, under setting [1], the “scaled lipid accumulation score” value is inactive: ≤ 0.

Turning to `COc1nc(C)nc(Cl)c1NC1=NCCN1` [Moxonidine hydrochloride], the “scaled lipid accumulation score” value under setting [1] was inactive: 0.003 and inactive: 0.009.

Turning to `CCCC[C@@H](C=O)NC(=O)[C@H](CC(C)C)NC(=O)OCc1ccccc1` [Calpeptin], the “scaled lipid accumulation score” value was inactive: 0.084 under setting [1] and inactive: 0.117 (library stock concentration: 13.8 mM).

Take `Cc1ccc(S(=O)(=O)NC(=O)NN2CC3CCCC3C2)cc1` (stereo unspecified) [Gliclazide]: the “scaled lipid accumulation score” value was inactive: ≤ 0. The “scaled lipid accumulation score” value under setting [2] was inactive: ≤ 0. In addition, where the note is “library stock concentration: 6.2 mM”, the “scaled lipid accumulation score” value was inactive: 0.012. In addition, the “scaled lipid accumulation score” value under setting [1] was inactive: ≤ 0 and inactive: ≤ -0.027.

Consider `O=c1c(O)cccc2cc(O)c(O)c(O)c12` [Purpurogallin], for which, under setting [1], the “scaled lipid accumulation score” value is inactive: ≤ 0.

As for `c1ccc(C(NCCNC(c2ccccc2)c2ccccc2)c2ccccc2)cc1` [AMN 082 dihydrochloride], under setting [1], the “scaled lipid accumulation score” value is inactive: 0.607.

On to `c1ccc(C(NCCNC(c2ccccc2)c2ccccc2)c2ccccc2)cc1`, for which the “scaled lipid accumulation score” value under setting [1] is inactive: 0.747.

`CC(=O)N[C@@H](CC(=O)N[C@@H](CCC(=O)O)C(=O)O)C(=O)O` [Spaglumic acid]: the “scaled lipid accumulation score” value was inactive: 0.002. Besides, under setting [1], the “scaled lipid accumulation score” value is inactive: 0.002.

For `O=c1c(O)c(-c2cc(O)c(O)c(O)c2)oc2cc(O)cc(O)c12` [Myricetin], the “scaled lipid accumulation score” value was inactive: ≤ 0. The “scaled lipid accumulation score” value under setting [1] is inactive: 0.113.

On to `O=C(O)c1cc2ccccc2[nH]1` [Indole-2-carboxylic acid], for which, under setting [1], the “scaled lipid accumulation score” value is inactive: ≤ 0.

In the case of `Cc1cc(Cn2cnc3c2CC(C(=O)O)N(C(=O)C(c2ccccc2)c2ccccc2)C3)ccc1N(C)C` (stereo unspecified), the “scaled lipid accumulation score” value is inactive: ≤ -0.009 under setting [2]; inactive: 0.021 and inactive: 0.002 under setting [1].

For `CC(C)C[C@@H](C=O)NC(=O)[C@H](CC(C)C)NC(=O)[C@H](CC(C)C)NC(=O)OCc1ccccc1`, the “scaled lipid accumulation score” value by setting is: under setting [2], inactive: 0.555; under setting [1], inactive: 0.721.

With `N[C@H]1C(O)O[C@H](CO)[C@@H](O)[C@@H]1O` (stereo partly specified) [Glucosamine hydrochloride], the “scaled lipid accumulation score” value reads like this: (library stock concentration: 9.3 mM) inactive: ≤ -0.001; under setting [1], inactive: 0.034.
